Reference: the supplement of paper PMC7826260
The list shows a part of the results. Each Rep nickase domain was tested in vitro on the same pool of single strands (3 µM enzyme, 1 h, 37 °C); shown is the middle of each 90-letter strand. Values are log2 of uncut reads against the no-enzyme pool; more negative means more cut, near 0 not cut, and no call is made. The scaling is to total reads; uncut strands gain when others are lost, and binding without cutting may add a little.

tested on: T1, Rep nickase domain of faba bean necrotic yellows virus; test: uncleaved DNA left, log2 of reads against the no-enzyme library (log2 ratio); higher = less cleavage (more negative = more Rep cleavage of the k-mer); sequences stand for … in CTCGTCCG…ACCGGAGA
T1 sequence (residues 1-98, tag not shown): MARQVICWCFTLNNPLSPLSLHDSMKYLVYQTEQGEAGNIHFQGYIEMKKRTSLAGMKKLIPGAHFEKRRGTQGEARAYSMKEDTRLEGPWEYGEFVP
Description: (§1)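 A pool of 90-nt single-stranded DNAs with seven random bases just before the constant AC of the nick site (name = the seven bases) was cut by 3 µM recombinant His6-SUMO-tagged Rep nickase domain (300 nM DNA, 50 mM HEPES pH 8.0, 50 mM NaCl, 1 mM MnCl2, 1 h, 37 °C, three replicates). Uncut DNA was amplified and sequenced.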

Sequence | uncleaved DNA left (log2)
AAAGTCC | 0.1
AAGGTAG | 0.135
ACAGATA | 0.148
ATCCTCT | -0.0257
CCCGCTC | 0.0475
GAAAACC | -0.0501
ATTCGAG | 0.0749
TCCCGTC | 0.0381
GGATGTG | 0.0267
ATAGCTC | 0.0109
GGCTAGT | -0.0586
ATAGGGT | 0.0547
TTCAGTG | 0.0794
GTACTGG | 0.00773
CAAAGTA | -0.0409
CAATGGG | 0.0753
ATGAAAG | -0.025
ATAATGT | 0.177
GTGACGT | -0.032
CTACAAA | -0.0259

Sequence | uncleaved DNA left (log2)
CCATCGA | 0.0203
TACGGAC | -0.0221
TGATCCA | 0.00274
GCCTGAC | -0.155
TGATCCG | -0.0328
TATAGTA | 0.00504
GTGGAGT | 0.0894
CACTGAG | 0.0932
GGGTCTC | -0.0262
ATCAGCA | 0.0813
CCTTTTA | 0.0492
CAGGCAT | 0.0495
GCATTGG | 0.0605
TTTGTAG | -0.00858
ACGCACG | -0.0363
ATATGGT | 0.0809
ATACACG | 0.0107
TCTGGTG | 0.105
CCTGAGG | 0.119
CCGCACG | -0.0517

tested on: T2, Rep nickase domain of maize striate mosaic virus; test: as above
T2 sequence (residues 1-117, tag not shown): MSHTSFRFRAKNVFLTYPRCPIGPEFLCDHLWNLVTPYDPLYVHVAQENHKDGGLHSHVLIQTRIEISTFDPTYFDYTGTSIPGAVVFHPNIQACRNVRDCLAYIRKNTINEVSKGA
Description: as §1

Sequence | uncleaved DNA left (log2)
AAAGTCC | -0.302
AAGGTAG | -0.73
ACAGATA | -0.355
ATCCTCT | -0.621
CCCGCTC | -0.303
GAAAACC | 0.333
ATTCGAG | -0.713
TCCCGTC | -0.477
GGATGTG | -0.382
ATAGCTC | -0.515
GGCTAGT | 1.64
ATAGGGT | 1.9
TTCAGTG | -1.21
GTACTGG | 1.38
CAAAGTA | -0.819
CAATGGG | -0.958
ATGAAAG | -1.18
ATAATGT | -0.947
GTGACGT | 2.1
CTACAAA | -0.748

Sequence | uncleaved DNA left (log2)
CCATCGA | -1.02
TACGGAC | 0.963
TGATCCA | 0.298
GCCTGAC | 0.432
TGATCCG | -1.08
TATAGTA | -0.517
GTGGAGT | 1.77
CACTGAG | -0.924
GGGTCTC | 2
ATCAGCA | -1.06
CCTTTTA | -0.636
CAGGCAT | 1.78
GCATTGG | -0.979
TTTGTAG | -1.23
ACGCACG | -0.796
ATATGGT | 1.32
ATACACG | -1.03
TCTGGTG | -0.903
CCTGAGG | 1.71
CCGCACG | -0.787

tested on: T3, Rep nickase domain of porcine circovirus 2; test: as above
T3 sequence (residues 2-116, tag not shown): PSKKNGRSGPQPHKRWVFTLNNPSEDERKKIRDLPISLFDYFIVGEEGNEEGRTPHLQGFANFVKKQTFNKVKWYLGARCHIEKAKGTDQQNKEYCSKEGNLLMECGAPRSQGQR
Description: as §1

Sequence | uncleaved DNA left (log2)
AAAGTCC | -0.0244
AAGGTAG | 0.384
ACAGATA | 0.126
ATCCTCT | -0.345
CCCGCTC | 0.0963
GAAAACC | -0.191
ATTCGAG | 0.0591
TCCCGTC | -0.0641
GGATGTG | 0.173
ATAGCTC | -0.0282
GGCTAGT | -1.25
ATAGGGT | 0.149
TTCAGTG | 0.0849
GTACTGG | 0.0798
CAAAGTA | -0.144
CAATGGG | 0.121
ATGAAAG | 0.226
ATAATGT | 0.102
GTGACGT | 0.229
CTACAAA | 0.12
